# The campaign covered roughly 220,000 compounds. About 16,000 (7.3%) were called active. The shares of active, inactive and inconclusive entries below differ from those in the screen. Calls follow the shape of the dose curve; as a rule, active = well fitted inhibition curve with a large enough effect (not every such curve was filed as active); inconclusive = small, poorly fitted or top-dose-only effect, or another doubt; inactive = no such curve, though single readings can be large or run the other way. No potency is given beside an inconclusive call; the fits are too rough.
# Target: Aldehyde dehydrogenase 1A1 (Homo sapiens) (UniProt P00352)
# Sequence of UniProt P00352 (P00352 whole entry, looked up): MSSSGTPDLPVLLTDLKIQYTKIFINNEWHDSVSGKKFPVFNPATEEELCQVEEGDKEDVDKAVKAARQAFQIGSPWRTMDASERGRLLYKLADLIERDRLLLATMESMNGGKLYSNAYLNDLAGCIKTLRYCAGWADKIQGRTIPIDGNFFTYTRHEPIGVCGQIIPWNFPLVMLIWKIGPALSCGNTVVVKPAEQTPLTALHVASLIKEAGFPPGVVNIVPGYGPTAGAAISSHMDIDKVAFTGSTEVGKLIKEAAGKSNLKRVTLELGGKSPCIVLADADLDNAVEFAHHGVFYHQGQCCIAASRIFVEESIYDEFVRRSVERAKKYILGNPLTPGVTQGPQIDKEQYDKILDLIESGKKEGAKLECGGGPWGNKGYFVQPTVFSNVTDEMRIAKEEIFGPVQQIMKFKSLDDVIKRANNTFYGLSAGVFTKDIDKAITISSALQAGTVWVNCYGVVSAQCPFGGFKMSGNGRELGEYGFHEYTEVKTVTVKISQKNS
# Test: qHTS Assay for Inhibitors of Aldehyde Dehydrogenase 1 (ALDH1A1);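 as to activity, negative = inhibition: plate controls were no enzyme wells and a reference inhibitor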
# Details: Purified ALDH1A1, NADH fluorescence, propionaldehyde substrate; series mostly up to 75.3 µM; activity, negative = inhibition: at the top concentration
# Potency is read from the fitted curve at half-maximal effect; tags tell the direction and shape of the fitted curve.
SMILES,"activity, negative = inhibition",Potency
COCC(=O)N1CCN(c2nc3ccccc3o2)CC1,inactive: -7.43%,
Cc1nnc2ccc(-c3ccc(NS(C)(=O)=O)cc3)nn12,,"inconclusive [inhibitor, single point]"
Cc1ccccc1-c1nc(NC2CC2)c2ccccc2n1,,"inconclusive [inhibitor, single point]"
CC[C@H]1NC(=O)c2cc(S(N)(=O)=O)c(Cl)cc2N1,inactive: -9.17% [at 20.9 µM],
COc1ccc(C2C(C(C)=O)=C(O)C(=O)N2CCN(C)C)cc1OC (stereo unspecified),inactive: -0.59%,
Oc1ccc(Br)cc1/C=N/N1CCN(Cc2ccccc2)CC1,inactive: 5.02%,
CC1CCCC(C)N1CCCNC(=O)c1cc2c(=O)n(C)c3ccccc3c2n1C (stereo unspecified),,"inconclusive [inhibitor, single point]"
Nc1ncc2c(n1)-c1ccccc1CC2,,"inconclusive [inhibitor, partial curve]"
Cc1csc(NC(=O)C2CCN(C(=O)c3ccccc3C)CC2)n1,,"inconclusive [inhibitor, single point]"
Cc1c(NC(=S)Nc2ccccc2C(F)(F)F)cccc1[N+](=O)[O-],,active: 22.4 µM
Cn1cnnc1SCC(=O)Nc1sc2c(c1C(N)=O)CCC2,,"inconclusive [inhibitor, single point]"
Cn1cccc1C(=O)N1CCC2(CCN(C(=O)Nc3cccc(C#N)c3)CC2)CC1,inactive: -6.6%,
Cc1ccc(SCCNS(=O)(=O)c2ccc3c(c2)OCCO3)cc1,,active: 1.41 µM
N#CC(c1ccc(Cl)nn1)c1ccccc1Cl (stereo unspecified),,active: 3.98 µM
Cc1ccc(NC(=S)NCC2CCN(C(C)c3ccccc3)C2)cc1C (stereo unspecified),inactive: 3.78%,
COCCn1c(-c2ccco2)nc2nc3ccccc3nc21,,"inconclusive [inhibitor, partial curve]"
Cc1ccc(S(=O)(=O)N(C)c2c(C)ccc(S(=O)(=O)NC(C)(C)C)c2C)cc1,,"inconclusive [inhibitor, single point]"
CCC(C)(C)n1nnnc1C(c1cc(OC)ccc1OC)N1CCN(Cc2ccccc2)CC1 (stereo unspecified),,"inconclusive [inhibitor, single point]"
CCOC(=O)Cc1csc(NC(=O)c2sc3nc4c(C)cc(C)cc4cc3c2N)n1,,"inconclusive [inhibitor, single point]"
CCOc1cc(S(=O)(=O)N2CCN(c3ccc(F)cc3)CC2)c(OCC)cc1-n1cnnn1,,"inconclusive [inhibitor, single point]"
CC(=O)c1cccc(N=c2scc(-c3ccc(S(=O)(=O)N4CCOCC4)cc3)n2CCO)c1,,active: 25.1 µM
CC1CCN(C(=O)CSc2nnc(Cc3cccn3C)n2CCc2ccccc2)CC1,,"inconclusive [inhibitor, single point]"
Cc1ccc(S(=O)(=O)Nc2ccc(NC(=O)c3ccc(F)cc3)cc2)cc1,inactive: -6.55%,

SMILES,"activity, negative = inhibition",Potency
COc1ccc(Nc2ncc(C(=O)N3CCN(c4ccccc4OC)CC3)c3ccccc23)cc1,,"inconclusive [inhibitor, single point]"
Cc1ccc(NC(=O)CN(C)C(=O)c2n[nH]c(=O)c3ccccc23)cc1,inactive: 3.54%,
Cc1ccc(S(=O)(=O)Cn2nnnc2C(C(C)C)N2CCSCC2)cc1 (stereo unspecified),inactive: -3.64%,
CC(=O)Nc1nc(=S)n(-c2ccccc2)[nH]1,,"inconclusive [inhibitor, single point]"
COc1ccc(-c2cc(C(=O)N/N=C\c3cc(OC)c(OC)c(OC)c3)[nH]n2)cc1,,"inconclusive [inhibitor, single point]"
CC(C)(O[C@@H]1O[C@H](CO)[C@@H](O)[C@H](O)[C@H]1O)[C@H]1Cc2cc3ccc(=O)oc3cc2O1,,"inconclusive [inhibitor, partial curve]"
COc1cc(OC)c(OC)cc1/C=N/n1c(-c2n[nH]c3c2CCC3)n[nH]c1=S,,"inconclusive [inhibitor, single point]"
CCOC(=O)C1CCN(C(=O)CSCCSCC(=O)N2CCC(C(=O)OCC)CC2)CC1,,active: 11.2 µM
CCN(CC(=O)NCCc1ccc(S(N)(=O)=O)cc1)Cc1nc2ccccc2c(=O)[nH]1,,"inconclusive [inhibitor, single point]"
Cn1ncc(C#N)c1/N=C/N1CCCCCC1,inactive: -6.64%,
Cc1ccc(-c2nn3c(C)nnc3s2)cc1NCc1c(F)cccc1Cl,,"inconclusive [inhibitor, partial curve]"
N#Cc1ccccc1NC(=O)CSc1nnc(-c2ccccc2O)n1-c1ccccc1,,"inconclusive [inhibitor, single point]"
Cc1cc(C)nc(NC(=O)c2cc(-c3ccc(C)s3)nc3ccccc23)c1,,"inconclusive [inhibitor, partial curve]"
Oc1ccc(CN2CCCCC2)nc1-c1ccccc1,,"inconclusive [inhibitor, single point]"
CCCCCCCCc1nc(=S)[nH][nH]1,,active: 12.6 µM
CC/C(=N\NC(=O)CSCc1ccccc1Cl)c1ccc2c(c1)OCCO2,,"inconclusive [inhibitor, single point]"
Cc1ccc(-c2nc3cccnc3s2)cc1NS(=O)(=O)c1cccs1,,"inconclusive [inhibitor, partial curve]"
CCN(CC)Cc1c(O)c(Cl)cc2c3c(c(=O)oc12)CCCC3,,"inconclusive [inhibitor, partial curve]"
O=S(=O)(c1cnc(Cl)c(Br)c1)N1CCc2ccccc21,,active: 2.82 µM
COc1cc2ccccc2cc1C(=O)NCC(c1cccs1)N(C)C (stereo unspecified),,"inconclusive [inhibitor, single point]"
COC(=O)[C@H](Cc1ccccc1)NC(=O)O[C@@H]1C(=O)c2ccc(OC)cc2O[C@H]1c1cccc(C(F)(F)F)c1,inactive: -1.11%,
CCOC(=O)C1CCN(C(=O)CSc2cc(=O)n(CC)c3ccccc23)CC1,,"inconclusive [inhibitor, partial curve]"
Cc1cc(C)nc(NC(=O)c2cnc3sccn3c2=O)n1,,"inconclusive [inhibitor, single point]"

# — PubChem BioAssay AID1030 (National Center for Advancing Translational Sciences (NCATS), 2008)
